# Laboratory results taken from PubChem BioAssay AID463173 (ICCB-Longwood Screening Facility, Harvard Medical School, 2010).
# Among all 52,000 compounds or so, about 4,300 (8.3%) were called active. Cut-off read from the data, not from the text of the source: active = survival mostly below about 52% (no sharp cut-off); inactive = mostly above about 56%. The list shows a part of the results.
# System: DeltatarO mutant
# Assay: S. aureus survival, RN4220 and DeltatarO strains – OD600, teichoic acid synthesis inhibitors, primary screen (AID 463173)
# Conditions: S. aureus RN4220 wild type/DeltatarO growth, OD600, 18 h, hits give low values, screened at 18.75 µg/mL (by protocol)
row,SMILES,survival
1,COc1cccc(-c2nc(SCc3cc(=O)c4ccc(C)c(C)c4[nH]3)n[nH]2)c1,inactive: 69%
2,Cc1ccc(Cc2nc3ccccc3nc2SCC(=O)NCCC(C)C)cc1,inactive: 112%
3,CCOC(=O)/C(C#N)=C\c1cn(C)c2ccccc12,inactive: 89%
4,CCCN(C(=O)c1nn(-c2ccc(OC)cc2)c(=O)c2c1c1ccccc1n2C)c1ccc(CC)cc1,inactive: 76%
5,COc1ccc2nc(SCC(=O)N3CCCCC3)c(C#N)cc2c1,inactive: 90%
6,COc1ccc(CN2C(=O)c3oc4ccccc4c(=O)c3C2c2ccc(O)cc2)cc1 (stereo not given),inactive: 82%
7,CC(C)C(Nc1ccc(C(F)(F)F)cn1)C(=O)O (stereo not given),inactive: 74%
8,O=C(Nc1cccc(-c2nc3cc(Cl)ccc3o2)c1)c1cc([N+](=O)[O-])ccc1N1CCOCC1,active: 40%
9,CCN1/C(=C2/SC(=S)N(C)C2=O)Sc2ccc(S(=O)(=O)C(F)(F)F)cc21,inactive: 72%
10,Cc1ccc(CN2CCC(CNc3ncnc4onc(-c5ccc(F)cc5)c34)CC2)cc1,active: -2%
11,Cc1cc(C)c(NC(=O)CSc2nc3ccccc3nc2N2CCCCC2)c(C)c1,active: 39%
12,O=C(NCc1cccc(Cl)c1)c1cc2ccc3cccnc3c2[nH]1,inactive: 70%
13,CC(C)COc1ccc(C(=O)Nc2ccc(S(=O)(=O)Nc3ncccn3)cc2)cc1,inactive: 83%
14,CCC(C(=O)Nc1cccc(Cl)c1C)n1nc(-c2ccc(C)cc2)ccc1=O (stereo not given),active: 41%
15,Nc1nc(C2CC(=O)OC23CCCCC3)cs1 (stereo not given),inactive: 98%
16,CC(C)COc1cccc(C(=O)Nc2ccc(-c3nc4ncccc4o3)cc2)c1,inactive: 65%
17,CCCc1nc2sc3c(N4CCC(C)CC4)ncnc3c2c2c1CCCC2,inactive: 61%
18,CC1CCN(C(=O)Cn2cc(SCC(=O)NCc3ccccc3Cl)c3ccccc32)CC1,inactive: 64%
19,O=C(Cn1cnc2c(oc3ccccc32)c1=O)Nc1ccccc1C(F)(F)F,inactive: 87%
20,COc1ccc(OC)c(NC(=O)CN(C)S(=O)(=O)c2ccc(C(=O)N3CCOCC3)s2)c1,inactive: 87%
21,Cc1ccc(-c2nnc(Nc3cccc(Cl)c3)c3ccccc23)cc1S(=O)(=O)N1CCOCC1,inactive: 85%
22,COc1ccccc1NC(=O)Cn1c(=O)n(Cc2ccccc2)c(=O)c2sc3ccccc3c21,active: 68%
23,COc1ccc(C)cc1NC(=O)N(Cc1ccc(C)o1)C1CCN(C(C)=O)CC1,active: 8%

row,SMILES,survival
1,O=C(Nc1ccc(C(=O)OCc2cc(=O)n3c4c(sc3n2)CCCC4)cc1)c1ccccc1,active: 25%
2,N#CC1=C(N)OC2=C(C(=O)CCC2)C1c1c(F)cccc1Cl (stereo not given),inactive: 74%
3,CC(=O)c1ccc(NC(=O)c2noc3c2CCc2ccccc2-3)cc1,inactive: 74%
4,Cc1cc(NC(=O)CN2CCCCC2)no1,inactive: 94%
5,COc1ccc(C2C(C(N)=O)=C(C)Nc3nc(CCCO)nn32)c(OC)c1 (stereo not given),inactive: 88%
6,Cc1cccc(N2CCN(S(=O)(=O)c3ccc4c(c3)CCCN4C(=O)C3CCC3)CC2C)c1 (stereo not given),inactive: 77%
7,Oc1ccc(Oc2ncc(Cl)cc2Cl)cc1,inactive: 71%
8,Cn1c(=O)n(-c2ccc(Br)cc2F)c(=O)c2sc3ccccc3c21,inactive: 93%
9,COc1ccc(Cn2c(=O)[nH]c3cc(C(=O)N4CCN(c5cccc(Cl)c5)CC4)ccc3c2=O)cc1,inactive: 59%
10,O=C(NC1CCCCCC1)c1ccc2c(c1)sc1nc(-c3ccc(F)cc3)cn12,inactive: 85%
11,CCOc1ccc(NC(=O)CN2C(=O)C(c3ccccc3)=NC23CCC(C)CC3)cc1 (stereo not given),inactive: 62%
12,COc1cc2c(=O)c(S(=O)(=O)c3ccc(F)cc3)cn(Cc3ccc(Cl)cc3)c2cc1OC,inactive: 73%
13,CCOC(=O)c1ccc(CN(Cc2ccc(F)cc2)S(=O)(=O)c2cc(C(=O)Nc3cccc(C(F)(F)F)c3)ccc2F)cc1,inactive: 67%
14,Clc1ccc(CCNC(c2nnc(-c3ccccc3)o2)c2ccccc2Cl)cc1 (stereo not given),active: -3%
15,CC(C)NC(=O)C1CCN(C(=O)N2CCOc3ccc(Cl)cc32)CC1,inactive: 50%
16,Cc1ccc(-c2noc(-c3ccc(N4CCCCC4)c([N+](=O)[O-])c3)n2)cc1,inactive: 69%
17,CN1C(=O)c2ccccc2Sc2ccc(NC(=O)N3CCN(c4ccccc4F)CC3)cc21,inactive: 82%
18,Cc1cc(C)c2c(-n3cccc3)c(C(=O)NCCCN3CCCCC3C)sc2n1 (stereo not given),inactive: 93%
19,COc1cc(-c2noc(-c3cc(C(C)C)[nH]n3)n2)cc(OC)c1OC,inactive: 84%
20,CC(=O)Nc1nonc1-c1nnc(SCc2ccc(Cl)cc2)n1C,active: 42%
21,CCOC(=O)c1c(NC(=O)c2cc(=O)c3c(C)cc(C)cc3o2)sc(C(C)=O)c1C,inactive: 60%
22,Cc1nn(S(=O)(=O)c2ccc(Cl)cc2)c(C)c1S(=O)(=O)N1CCCCCC1,inactive: 79%
23,CNC(=O)COc1ccc(NC(=O)c2ccc(-c3nn(C)c(=O)c4ccccc34)cc2)cc1,inactive: 75%

row,SMILES,survival
1,CC1(C)Cc2ccccc2-c2nnc(SCC(=O)N3CCCCC3)n21,inactive: 61%
2,CCn1c(SCc2ccccc2Cl)nc(=O)c2c(C(=O)OC)cc(C3CC3)nc21,inactive: 77%
3,O=C(Nc1ccc(F)cc1)c1cccn1-c1nnc(N2CCCCC2)s1,inactive: 99%
4,CCOC(=O)c1c(C)oc2nc(C)nc(N3CCN(c4ccccc4)CC3)c12,inactive: 83%
5,COc1ccccc1N1CCN(C(=O)CCS(=O)(=O)c2cc(Br)cc3c2N(C(=O)C2CC2)CC3)CC1,inactive: 83%
6,O=C(CSc1nnc(CNC(=O)c2ccccc2)n1-c1cccc(Cl)c1)Nc1ccccc1F,inactive: 83%
7,OC(CC#CCN1CCOCC1)(c1ccccc1)c1ccccc1,inactive: 83%
8,COc1ccc2oc(=O)c(C(=O)NCCc3c(C)[nH]c4ccc(Br)cc34)cc2c1,inactive: 45%
9,CCCNC(=O)c1cnc2sc(N3CCCCC3)nn2c1=O,inactive: 99%
10,NNC(=O)C(NC(=O)c1ccccc1)c1n[nH]c(=O)c2ccccc12 (stereo not given),inactive: 91%
11,Cc1cn2c(=O)cc(COc3ccccc3NC(=O)c3ccccc3C)nc2s1,inactive: 94%
12,Cc1ccc(-c2csc(/C(C#N)=C/c3ccccc3Cl)n2)cc1,active: 21%
13,Cc1ccc2cccc(NC(=O)c3ccc(-c4ccc(Br)cc4)o3)c2n1,active: 59%
14,Cc1cc(=O)c2cc(C(=O)Nc3ccccc3)ccc2[nH]1,inactive: 88%
15,CCc1ccc(-n2c(-c3ccccc3)c(C)n3c4c(=O)n(C)c(=O)n(C)c4nc23)cc1,inactive: 135%
16,Oc1ccccc1C1=Nc2ccccc2N=C(c2ccco2)C1,inactive: 75%
17,Cc1ccc(OCC(=O)Nc2ccc(S(=O)(=O)Nc3ncccn3)cc2)c(C(C)(C)C)c1,active: 47%
18,CN1CCN(CCCNC(=O)c2cnn(-c3ccccc3)c2-n2cccc2)CC1,inactive: 87%
19,O=C(c1ccc(F)cc1)C1CCN(S(=O)(=O)c2ccc(F)cc2)CC1,inactive: 95%
20,O=c1c2sc3ccccc3c2n(Cc2cccc(C(F)(F)F)c2)c(=O)n1Cc1ccco1,inactive: 70%
21,O=C(NCCN1CCOCC1)c1c(Cl)cccc1Cl,inactive: 102%
22,CC(C)(C)C(=O)CSc1nc2ccsc2c(=O)n1Cc1ccccc1F,inactive: 126%
23,O=C(NCc1cccc(F)c1)C1CCN(C(=O)c2sccc2-n2cccc2)CC1,inactive: 121%

row,SMILES,survival
1,O=C(Nc1cc(NC(=O)c2ccccc2Cl)ccc1Cl)c1ccccc1,inactive: 65%
2,CCOc1ccccc1CNC(=O)c1ccc2nc(Cc3ccc(OC)cc3)oc2c1,inactive: 73%
3,COc1ccc(N2CCN(C(=O)CCNS(=O)(=O)c3ccc4c(c3)CCN4C(=O)C3CC3)CC2)cc1,inactive: 75%
4,COc1ccc(CNC(=O)c2ccc(Cn3c(=O)c4cccn4c4cccnc43)cc2)cc1OC,inactive: 67%
5,CCOc1ccccc1NC(=O)N1CCCC(c2nc3c(nnn3Cc3ccc(C)cc3)c(=O)[nH]2)C1 (stereo not given),inactive: 82%
6,CCOCCCNC(=O)NC(CCC(C)C)c1c(-n2cccc2)sc2c1CCN(C)C2 (stereo not given),inactive: 117%
7,N#CCSc1ncccc1-c1nc2ccccc2[nH]1,inactive: 100%
8,COc1ccc(CNC(=O)CN2C(=O)COc3ccc(S(=O)(=O)NC4CCCC4)cc32)cc1,inactive: 99%
9,COc1ccc(CCNC(=O)CCc2c(C)nc3cc(-c4ccccc4OC)nn3c2C)c(OC)c1,active: 54%
10,CCOC(=O)N1CCN(c2ncc3c(n2)CC(c2ccccc2O)CC3=O)CC1 (stereo not given),inactive: 85%
11,COc1ccc(/C=C\c2onc(C)c2S(=O)(=O)N2CCC(C(=O)Nc3cccc(Cl)c3)CC2)cc1,inactive: 57%
12,COc1ccccc1NC(=O)CSc1nnc2c3ccccc3n(C(C)C)c2n1,active: 33%
13,CC(=O)n1cc(C2C(=O)CC(C)(C)CC2=O)c2ccccc21,inactive: 79%
14,COc1cccc(C(=O)N2CCc3c([nH]c4ccccc34)C2c2ccc(SC)cc2)c1 (stereo not given),inactive: 124%
15,Cc1ccc(Nc2nnc(-c3cc4c(ccc5ccccc54)oc3=O)s2)cc1,inactive: 122%
16,CNC(=O)C1CCC(Cn2c(=O)c3sccc3n(CC(=O)NCc3cccc(OC)c3)c2=O)CC1 (stereo not given),inactive: 73%
17,Cc1cc(C)cc(Nc2cc(C)nc3nncn23)c1,inactive: 53%
18,Cc1cccc(-c2nc3scc(CCNC(=O)c4ccc(Br)o4)n3n2)c1,inactive: 80%
19,CCC(CC)C(=O)Nc1ccc(-c2cn3cccnc3n2)cc1,inactive: 91%
20,Cc1ccc(CNc2ncnc3c2nc2n3CCCC2)cc1,inactive: 92%
21,CCN(C(=O)CSc1nc2ccccc2n1CC(=O)NCc1ccc(OC)cc1)c1ccccc1,inactive: 73%
